According to ChEMBL document CHEMBL5606460, “ASAP - DENV-2 NS2B-NS3 protease fluorescence single point” (2024):
Among all 2,000 compounds or so, about 110 (5.5%) showed an effect of 50% or more. Some of the results follow.

Molecular target: Genome polyprotein (dengue virus type 2) (UniProt P29990)
[1] = Thailand/16681/1984, Concentration 25.0 uM, Number of replicates 1.0

CC(C)C[C@@H](NC(=O)OCc1ccccc1)C(=O)Nc1cccc(CN)c1
inhibition (Thailand/16681/1984, Concentration 49.5 uM, Number of replicates 2.0, Standard deviation 3.1792600205617827 %): -4.42% | inhibition (Thailand/16681/1984, Concentration 99.01 uM, Number of replicates 2.0, Standard deviation 3.3347078817009965 %): -3.69% | inhibition (Thailand/16681/1984, Concentration 198.0 uM, Number of replicates 2.0, Standard deviation 3.065424880922284 %): -2.71%

NCc1cccc(NC(=O)c2ccc(OCc3ccccc3)cc2)c1
inhibition (Thailand/16681/1984, Concentration 49.5 uM, Number of replicates 2.0, Standard deviation 2.4267153963452164 %): -8.23% | inhibition (Thailand/16681/1984, Concentration 99.01 uM, Number of replicates 2.0, Standard deviation 3.232210455045171 %): -7.44% | inhibition (Thailand/16681/1984, Concentration 198.0 uM, Number of replicates 2.0, Standard deviation 1.7215868196403763 %): -4.67%

CCCN(C)C(=O)c1cc(Cl)ccc1NS(=O)(=O)c1ccc(Oc2ccccc2Cl)cc1
inhibition (Thailand/16681/1984, Concentration 49.5 uM, Number of replicates 2.0, Standard deviation 0.9470295707961462 %): 75.9% | inhibition (Thailand/16681/1984, Concentration 99.01 uM, Number of replicates 2.0, Standard deviation 0.4835625940830703 %): 88.8% | inhibition (Thailand/16681/1984, Concentration 198.0 uM, Number of replicates 2.0, Standard deviation 0.2692812727579233 %): 93.4%

O=Cc1ccc(N2CCC(C(=O)Nc3ccccc3Cc3ccccc3)CC2)cc1
inhibition [1]: 15%

CN(C)c1ccc(C(=O)Nc2cc(Cl)cc(C(=O)NC(C)(C)CO)c2)nc1
inhibition (Thailand/16681/1984, Concentration 49.5 uM, Number of replicates 2.0, Standard deviation 13.004898337129504 %): 5.12% | inhibition (Thailand/16681/1984, Concentration 99.01 uM, Number of replicates 2.0, Standard deviation 3.791027680137292 %): -1.14% | inhibition (Thailand/16681/1984, Concentration 198.0 uM, Number of replicates 2.0, Standard deviation 10.980370085636464 %): -0.928%

Cc1cc(CO)c2cccc(NC(=O)Cc3cccc(CN)c3)c2n1
inhibition (Thailand/16681/1984, Concentration 49.95 uM, Number of replicates 2.0, Standard deviation 1.2018993187616485 %): 15.4% | inhibition (Thailand/16681/1984, Concentration 99.9 uM, Number of replicates 2.0, Standard deviation 0.39117400474888586 %): 23.6%

NS(=O)(=O)c1ccc(CN2CC[C@H](c3c[nH]c4ccccc34)C2)cc1
inhibition (Thailand/16681/1984, Concentration 49.5 uM, Number of replicates 2.0, Standard deviation 3.0170194361417653 %): -0.147% | inhibition (Thailand/16681/1984, Concentration 99.01 uM, Number of replicates 2.0, Standard deviation 4.2466169051015 %): 1.94% | inhibition (Thailand/16681/1984, Concentration 198.0 uM, Number of replicates 2.0, Standard deviation 3.715968526211635 %): 3.94%

CN(C)Cc1ccc(NCc2ccc(N3CCN(C)CC3)cc2)nc1
inhibition (Thailand/16681/1984, Concentration 49.5 uM, Number of replicates 2.0, Standard deviation 2.616869754240302 %): -3.53% | inhibition (Thailand/16681/1984, Concentration 99.01 uM, Number of replicates 2.0, Standard deviation 3.1418138943590055 %): -3.88% | inhibition (Thailand/16681/1984, Concentration 198.0 uM, Number of replicates 2.0, Standard deviation 2.0894730047130525 %): -3.69%

Cc1cc(CO)c2cccc(Cc3cccc(C(=O)NCc4ncc[nH]4)c3)c2n1
inhibition (Thailand/16681/1984, Concentration 49.95 uM, Number of replicates 2.0, Standard deviation 0.223500691555814 %): -5.07% | inhibition (Thailand/16681/1984, Concentration 99.9 uM, Number of replicates 2.0, Standard deviation 0.46496774169485194 %): -5.63%

NCc1cccc(NC(=O)[C@@H](NC(=O)OCc2ccccc2)C(C2CCC2)C2CCC2)c1
inhibition (Thailand/16681/1984, Concentration 49.5 uM, Number of replicates 2.0, Standard deviation 1.0931409988329541 %): 0.575% | inhibition (Thailand/16681/1984, Concentration 99.01 uM, Number of replicates 2.0, Standard deviation 7.259842534821406 %): 21.9% | inhibition (Thailand/16681/1984, Concentration 198.0 uM, Number of replicates 2.0, Standard deviation 0.026391345013157583 %): 99.8%

CCN(C(=O)C1CCN(c2ccc(C=O)cc2)CC1)[C@H]1CCOC(C)(C)C1
inhibition [1]: 13%

O=Cc1ccc(N2CCC(C(=O)NCc3cc(-c4ccc(Cl)cc4)on3)CC2)cc1
inhibition [1]: 1.65%

C[C@H](NC(=O)C1CCN(c2ccc(C=O)cc2)CC1)C12CC3CC(CC(C3)C1)C2
inhibition [1]: 15%

Cc1cc(CO)c2cccc(C[C@H](NC(=O)Cc3nnc(C)[nH]3)C(=O)O)c2n1
inhibition (Thailand/16681/1984, Concentration 49.95 uM, Number of replicates 2.0, Standard deviation 0.7154639954840757 %): 4.77% | inhibition (Thailand/16681/1984, Concentration 99.9 uM, Number of replicates 2.0, Standard deviation 0.7742416532425804 %): 13.3%

OC1CCN(Cc2c[nH]c3ccccc23)CC1
inhibition (Thailand/16681/1984, Concentration 49.5 uM, Number of replicates 2.0, Standard deviation 2.3223002037884486 %): -3.12% | inhibition (Thailand/16681/1984, Concentration 99.01 uM, Number of replicates 2.0, Standard deviation 2.9172253083494284 %): -2.25% | inhibition (Thailand/16681/1984, Concentration 198.0 uM, Number of replicates 2.0, Standard deviation 2.845140204642094 %): -1.14%

CCOCc1nc(Cn2cc(C3CCNCC3)c(C)n2)cs1
inhibition (Thailand/16681/1984, Concentration 49.5 uM, Number of replicates 2.0, Standard deviation 0.8755520139100964 %): -1.44% | inhibition (Thailand/16681/1984, Concentration 99.01 uM, Number of replicates 2.0, Standard deviation 1.6845203733224097 %): -1.51% | inhibition (Thailand/16681/1984, Concentration 198.0 uM, Number of replicates 2.0, Standard deviation 0.07156608634134701 %): 0.2%

O=Cc1ccc(N2CCC(C(=O)N(CCc3ccccc3)C3CCCC3)CC2)cc1
inhibition [1]: 12.7%

Cc1cc(CO)c2cccc(Cc3cccc(C(=O)N4CCC(CN)CC4)c3)c2n1
inhibition (Thailand/16681/1984, Concentration 49.95 uM, Number of replicates 2.0, Standard deviation 0.03521723226612688 %): 98.6% | inhibition (Thailand/16681/1984, Concentration 99.9 uM, Number of replicates 2.0, Standard deviation 0.007908771829372243 %): 98.5%

CN(C)Cc1cccc(CNC(=O)C2CCN(c3ccc(C=O)cc3)CC2)c1
inhibition [1]: 11.4%

Cc1cnccc1NC(=O)c1csc(CC(C)C)n1
inhibition (Thailand/16681/1984, Concentration 49.5 uM, Number of replicates 2.0, Standard deviation 0.5845342205291042 %): -0.596% | inhibition (Thailand/16681/1984, Concentration 99.01 uM, Number of replicates 2.0, Standard deviation 0.6476682292332556 %): 0.642% | inhibition (Thailand/16681/1984, Concentration 198.0 uM, Number of replicates 2.0, Standard deviation 0.2857360767661525 %): 2.78%
